Measured values: paper PMC4336329 (PLoS ONE, 2015)
Out of some 310,000 compounds screened, about 2,200 (0.71%) showed an effect of 50% or more. The effect is printed as a negative number. Some of the results follow.

Each compound was assayed against human ether-à-go-go-related gene (hERG) potassium channel (human, UniProt Q12809) (assay: primary screen, population patch clamp on CHO cells stably expressing hERG).
human ether-à-go-go-related gene (hERG) potassium channel, sequence (Q12809 whole entry, looked up): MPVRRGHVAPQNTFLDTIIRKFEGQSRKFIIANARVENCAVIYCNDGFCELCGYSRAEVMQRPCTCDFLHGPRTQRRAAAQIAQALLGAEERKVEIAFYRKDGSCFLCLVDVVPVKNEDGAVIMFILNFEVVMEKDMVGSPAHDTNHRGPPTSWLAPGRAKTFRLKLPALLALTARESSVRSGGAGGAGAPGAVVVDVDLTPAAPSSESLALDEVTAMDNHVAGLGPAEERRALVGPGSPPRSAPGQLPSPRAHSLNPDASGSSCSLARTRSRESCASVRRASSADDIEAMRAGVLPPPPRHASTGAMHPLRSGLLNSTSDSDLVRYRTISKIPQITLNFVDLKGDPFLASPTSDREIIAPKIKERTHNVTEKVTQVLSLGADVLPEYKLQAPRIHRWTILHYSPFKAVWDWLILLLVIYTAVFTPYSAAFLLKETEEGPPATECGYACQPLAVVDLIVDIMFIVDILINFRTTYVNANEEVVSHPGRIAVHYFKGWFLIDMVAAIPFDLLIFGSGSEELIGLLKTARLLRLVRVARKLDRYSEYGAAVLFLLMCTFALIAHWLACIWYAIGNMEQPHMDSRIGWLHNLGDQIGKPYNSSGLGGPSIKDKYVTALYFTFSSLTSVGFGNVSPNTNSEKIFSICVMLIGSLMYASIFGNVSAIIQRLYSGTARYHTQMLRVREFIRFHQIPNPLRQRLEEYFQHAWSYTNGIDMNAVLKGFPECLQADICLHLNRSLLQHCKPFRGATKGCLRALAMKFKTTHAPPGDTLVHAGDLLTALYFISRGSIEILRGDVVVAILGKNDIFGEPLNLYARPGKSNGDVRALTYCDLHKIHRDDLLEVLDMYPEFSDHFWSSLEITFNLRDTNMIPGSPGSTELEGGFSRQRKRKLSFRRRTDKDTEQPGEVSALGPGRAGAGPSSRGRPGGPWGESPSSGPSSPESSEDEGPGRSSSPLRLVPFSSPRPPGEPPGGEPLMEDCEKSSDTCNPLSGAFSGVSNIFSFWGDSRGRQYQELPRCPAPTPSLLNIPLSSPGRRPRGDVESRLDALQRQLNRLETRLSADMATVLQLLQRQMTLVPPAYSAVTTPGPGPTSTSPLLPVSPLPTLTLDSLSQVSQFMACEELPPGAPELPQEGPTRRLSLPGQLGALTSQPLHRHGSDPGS
In the case of `CCN1C(=O)/C(=C/C2=Cc3ccccc3OC2C)SC1=S` (stereo not shown), the “hERG current change (%, negative = inhibition) at 1uM” value was 12.2%. With `Cc1ccc(S(=O)(=O)Nc2ccncc2)c(C)c1N(C)S(=O)(=O)c1ccc(F)cc1` the “hERG current change (%, negative = inhibition) at 1uM” value was 10.8%. In the case of `COc1cc(NC(C(=O)Nc2cccc(C(C)=O)c2)c2ccccc2)cc(OC)c1OC` (stereo not shown), the “hERG current change (%, negative = inhibition) at 1uM” value was 1.42%. For `Cc1ccnc(NC(=O)c2ccccc2NC(=O)c2ccc(Cl)cc2Cl)c1`, the “hERG current change (%, negative = inhibition) at 1uM” value was 12.4%. For `Cc1ccc(S(=O)(=O)NC(C)CCc2ccccc2)cc1C(N)=O` (stereo not shown), the “hERG current change (%, negative = inhibition) at 1uM” value was 11.2%. `Cn1nnnc1SCC(=O)Nc1nc2c(s1)CCCC2` was tested, and the “hERG current change (%, negative = inhibition) at 1uM” value was 3.15%. In the case of `CCCCN1CCNC[C@@H]1Cc1ccc(O)cc1`, the “hERG current change (%, negative = inhibition) at 1uM” value was 13.1%. With `Cc1cc(N2CCCC2=O)ccc1S(=O)(=O)N1CCOCC1` the “hERG current change (%, negative = inhibition) at 1uM” value was 7.76%. For `COc1ccc(-n2ncc3c(=O)n(CC(=O)OCc4ccccc4)cnc32)cc1`, the “hERG current change (%, negative = inhibition) at 1uM” value was 9.3%. With `Cc1cc(NC(=O)CSc2nnc(Nc3ccccc3C)s2)no1` the “hERG current change (%, negative = inhibition) at 1uM” value was 5.94%. `COc1ccc(Nc2nc(N)nc(CSc3nccc(C)n3)n2)cc1` was tested, and the “hERG current change (%, negative = inhibition) at 1uM” value was 9.07%. In the case of `Cc1ccc(CCNS(=O)(=O)c2ccc3c(c2)NC(=O)CCS3)cc1`, the “hERG current change (%, negative = inhibition) at 1uM” value was 10.8%. For `CC(C)CCn1c(=O)c2ccccc2n2c(CCC(=O)NCC3CCCO3)nnc12` (stereo not shown), the “hERG current change (%, negative = inhibition) at 1uM” value was 11.4%. With `CCN(CC(=O)Nc1ccccc1OC)C(=O)C1CC2C=CC1C2` (stereo not shown) the “hERG current change (%, negative = inhibition) at 1uM” value was 18.7%. With `Cc1nn(Cc2ccccc2Cl)c(C)c1C(=O)NCc1ccco1` the “hERG current change (%, negative = inhibition) at 1uM” value was 2.29%. With `COCCNC(=O)Cn1c(=O)oc2cc(S(=O)(=O)N3CC(C)CC(C)C3)ccc21` (stereo not shown) the “hERG current change (%, negative = inhibition) at 1uM” value was 8.05%. For `COc1ccccc1Nc1nc(Cl)nc(NC(C)(C)C)n1`, the “hERG current change (%, negative = inhibition) at 1uM” value was 5.36%. With `c1cncc(C2OCC3(CO2)COC(c2cccnc2)OC3)c1` (stereo not shown) the “hERG current change (%, negative = inhibition) at 1uM” value was 11.8%. `CCS(=O)(=O)c1nc(S(=O)(=O)c2ccc(C)cc2)c(NCCCN2CCCC2=O)s1` was tested, and the “hERG current change (%, negative = inhibition) at 1uM” value was 7.18%. In the case of `Cc1cc(NC(=O)c2noc3c2CCCC3)nn1Cc1ccc(Cl)cc1`, the “hERG current change (%, negative = inhibition) at 1uM” value was 8.36%. In the case of `CN(C(=O)c1ccco1)c1nc2c(s1)CCCC2`, the “hERG current change (%, negative = inhibition) at 1uM” value was -4.05%. For `CS(=O)(=O)c1ccc(Sc2nc3ccccc3s2)c([N+](=O)[O-])c1`, the “hERG current change (%, negative = inhibition) at 1uM” value was 11.2%. `COc1ccccc1C1CC(=O)n2c(nc(-c3ccccc3)c2-c2ccccc2)S1` (stereo not shown) was tested, and the “hERG current change (%, negative = inhibition) at 1uM” value was 8.55%. With `Cc1cc(C)c(C(=O)OCc2csc(CC(=O)Nc3ccccc3C)n2)c(C)c1` the “hERG current change (%, negative = inhibition) at 1uM” value was -13.3%. With `CCOC(=O)/C=C1\SCC(=O)N1CC(=O)NC1CCCCC1` the “hERG current change (%, negative = inhibition) at 1uM” value was -1.7%. In the case of `O=S1(=O)CCOC[C@H](Cc2ccccc2)N1Cc1cccc(Cl)c1`, the “hERG current change (%, negative = inhibition) at 1uM” value was 6.92%. For `CCOC(=O)c1c(NC(=S)NC(=O)c2cnn(CC)c2)sc2c1CCC(C)C2` (stereo not shown), the “hERG current change (%, negative = inhibition) at 1uM” value was 3.84%. For `CCNC(=O)CSc1nc2ccccc2c(=O)n1-c1cc(OC)ccc1OC`, the “hERG current change (%, negative = inhibition) at 1uM” value was 6.92%. In the case of `Cc1sc(NC(=O)CSC2=NCCS2)nc1-c1ccccc1`, the “hERG current change (%, negative = inhibition) at 1uM” value was 11.1%. With `O=C(NCC(c1ccco1)N1CCc2ccccc2C1)c1ccccc1Br` (stereo not shown) the “hERG current change (%, negative = inhibition) at 1uM” value was -3.03%. In the case of `CC(C)[C@H](NC(=O)c1cccc(S(=O)(=O)N2CCCC2)c1)c1nc2ccccc2[nH]1`, the “hERG current change (%, negative = inhibition) at 1uM” value was 6.51%. For `O=C(O)[C@@H]1CCCN1C(=O)c1ccco1`, the “hERG current change (%, negative = inhibition) at 1uM” value was 9.78%. For `C=CCCC(=O)Nc1nc(C)c(-c2csc(Nc3cccc(OC)c3)n2)s1`, the “hERG current change (%, negative = inhibition) at 1uM” value was -16.1%. With `Cc1ccc(-c2ccc(SCC(=O)Nc3ccc4c(c3)OCCO4)nn2)cc1` the “hERG current change (%, negative = inhibition) at 1uM” value was 9.42%. With `NC(=O)c1ccc(NC(=O)CS(=O)(=O)c2cn(CC(=O)N3CCCC3)c3ccccc23)cc1` the “hERG current change (%, negative = inhibition) at 1uM” value was 4.57%. For `CC(OC(=O)Cc1coc2ccc3ccccc3c12)C(=O)NC(N)=O` (stereo not shown), the “hERG current change (%, negative = inhibition) at 1uM” value was 12.9%. With `Fc1ccc(NC(=S)N/N=C/c2ccc(F)c(F)c2)c(F)c1` the “hERG current change (%, negative = inhibition) at 1uM” value was 8.77%. In the case of `Cc1ccc(NC(=O)c2ccccc2Cl)cc1-n1cnnn1`, the “hERG current change (%, negative = inhibition) at 1uM” value was -7%. In the case of `O=C(Cn1c(C2CC2)nc2ccccc2c1=O)Nc1ccc(Br)cc1`, the “hERG current change (%, negative = inhibition) at 1uM” value was 12.9%. For `CN(C(=O)Oc1ccc([N+](=O)[O-])cc1)c1ccccc1`, the “hERG current change (%, negative = inhibition) at 1uM” value was 5.63%. `N#CCCn1cc(C(=O)Nc2ccc(C(=O)O)cc2)c(-c2ccc([N+](=O)[O-])cc2)n1` was tested, and the “hERG current change (%, negative = inhibition) at 1uM” value was 16%. `COc1ccccc1NS(=O)(=O)c1ccc(C(=O)N2CCCC(C)C2)cc1` (stereo not shown) was tested, and the “hERG current change (%, negative = inhibition) at 1uM” value was 8.59%. For `CC(C)(CN1CCCCC1)NS(=O)(=O)c1ccc(Cl)cc1`, the “hERG current change (%, negative = inhibition) at 1uM” value was -3.53%.
